Consider one substance from FireProtDB (doi:10.1110/ps.041085005).

“And” between values parts separate entries of the source, which are not always exact repeats. Equal values may be shown once.

For this series the following is noted: Gallus gallus, reversible: Yes.
The mark [1] stands for this setting: pH 6, Thermal, DSC, Sodium citrate 11 mM.
The mark [2] stands for this setting: pH 7, 20 °C, GdnHCl, Fluorescence, HEPES/NaOH 50 mM.

For the substance “Lysozyme C wild type (chain not printed)”, under setting [1], the midpoint of thermal melting (Tm) is 74.3 °C and 73.7 °C; the “unfolding enthalpy (calorimetric)” value is 117 kcal/mol and 112 kcal/mol. Also, under setting [2], the denaturant m value was 2.58 kcal/mol/M and 2.34 kcal/mol/M and 3.11 kcal/mol/M; the “denaturant midpoint (higher = more stable)” value was 4 M and 4.4 M; the unfolding free energy is 10.6 kcal/mol and 10.3 kcal/mol and 12.9 kcal/mol.
